# In publication PMC10668032:
# This is one part of the list. At the low end of the ranking the order means little.
# Target: SIX1-Q177R homeodomain (UniProt Q15475)
# Test: universal protein binding microarray
# Conditions: Universal all-10-mer PBM (8x60K, AMADID 030236), 300 nM GST-tagged protein, Alexa Fluor 488 anti-GST; buffer, salt, pH and temperature not stated; high values mean tight binding; most listed sequences are background and not binding sites; double strand, one strand shown
row,Sequence,binding signal [E-score]
1,ATTAGTGG,0.0379
2,CTGACTCA,-0.0178
3,AAGACTGA,-0.0974
4,TCAGATGA,0.111
5,ACCCATTC,0.0322
6,GTAAAAAA,-0.193
7,CCTCCAAG,-0.0906
8,GCGCAGAA,-0.126
9,CCACCCTA,0.174
10,ACCAGGAG,0.0753
11,AGCCGGGC,-0.123
12,AAGATGGT,-0.0731
13,ATAGCAGA,-0.0966
14,AGATTAAG,-0.137
15,ATGCCCGC,-0.0116
16,CAACTCAC,0.104
17,CTTGGGCC,-0.283
18,AGCAGCCT,0.0598
19,GAGGAAAC,-0.169
20,ATGGTACG,-0.0163
21,ACGGTATC,0.298
22,ATGACACC,0.492
23,CGGAATTC,-0.093
24,ACCGTTAT,-0.0124

row,Sequence,binding signal [E-score]
1,GGTCGTGA,0.0821
2,CCTGCGCG,0.0458
3,ACTCGGAC,0.179
4,AACATGAG,-0.00683
5,CAACGGTG,0.337
6,AGATCGAG,-0.154
7,AAGCGCAA,-0.152
8,AGACTTAC,0.0491
9,AGAGGTGC,0.19
10,AGGCCCCG,-0.112
11,TGAGCCAA,-0.312
12,CTGGCTTA,-0.13
13,AGTGCCCC,-0.0201
14,AAAGGTTA,-0.0369
15,GTCCAGAA,-0.0778
16,AACGCCAT,0.0407
17,ACTTACCC,0.186
18,AGACCGCG,-0.0239
19,ACGACACG,0.426
20,ATTTTTAC,-0.14
21,CCTTCCGA,0.0537
22,AACCTAGT,0.0884
23,CTATAGGA,0.031
24,AATTAATT,-0.363

row,Sequence,binding signal [E-score]
1,CCGGTAAG,-0.173
2,ACCTACGG,0.0531
3,GCTAACCC,0.186
4,CCGTCCGC,-0.1
5,CACCCCTA,0.283
6,CGGAAGGC,-0.179
7,CCATGCAG,-0.0515
8,CAATAGGA,-0.0533
9,CCAGCCAA,-0.216
10,TAAGAGAA,-0.244
11,CGTTAGAG,-0.17
12,AATGCGTG,0.0365
13,GTACCCAC,0.069
14,TAATTAGA,-0.179
15,ATCACCAC,-0.000695
16,GGTGGGGA,0.11
17,ACCTTTCG,-0.00999
18,CGGTCACA,0.142
19,CTCTCGTC,-0.171
20,AAGCGGCA,-0.0991
21,CGCATAAC,0.0341
22,TAGTAATA,0.0394
23,ATATTACC,0.0275
24,AGTCTTAT,-0.115

row,Sequence,binding signal [E-score]
1,CTTTCGTC,-0.173
2,CGTCTAAA,-0.151
3,GGAAATGA,-0.105
4,AACTTAAG,-0.162
5,ATTACAGC,-0.135
6,GCGAGCCA,-0.273
7,AGACCACA,-0.0501
8,GTGTGTAA,0.337
9,AGGCGGCC,-0.286
10,AGCGCGTC,-0.0896
11,CCTAGATA,-0.0444
12,CGGCGGTC,-0.208
13,CGGAAAGC,-0.139
14,CGTAGGGA,0.0632
15,CGACAGTA,-0.0537
16,CTTTACTC,0.00717
17,CAGGCCAG,0.0565
18,ACCCAGGG,0.201
19,CTTGCGTC,-0.218
20,ATGCACAT,-0.125
21,CACGGCTG,0.201
22,CCCTTAAC,0.152
